Values marked as one replicate rest on one cluster of the flow cell; about a third of the high ones do not repeat.
Each sequence was assayed on ATP (assay: switch fluorescence ratio, 500 uM ATP over buffer (Cy3 cluster intensity, sum of 5 cycles each) (fold (ratio)); higher = stronger signal-on switching upon ATP binding; sequences stand for … in TCGTCGGCAGCGTCAGATGTGTATAAGAGACAGTTTTTTTTTTTTTTTTTTTTTTTTT…TC). Settings: aptamer strand: ATP DNA aptamer (quencher-CACCTGGGGGAGTATTGCGGAGGAAGG + anchor), 100 nM annealed; ATP concentration: 500 uM; one replicate.
In short: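 Imaging in selection buffer was followed by imaging after 15 min with 500 uM ATP at 22 °C, for Cy3-labelled switching-strand clusters annealed to 100 nM quencher-labelled ATP aptamer on a modified Illumina MiSeq flow-cell. Five of these buffer/ATP cycles ran, separated by NaOH stripping and re-annealing. The fluorescence ratio per cluster is summed target-cycle over summed buffer-cycle Cy3 intensity, averaged per switch-domain sequence; clusters outside 100-1000 RFU were removed.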
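Also: ATP exposure 15 min at 22 °C before imaging.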

| Sequence | switch fluorescence ratio |
| --- | --- |
| ATAATGGTAG | 0.993 |
| ATAATGTAAC | 0.997 |
| ATAATTTGGC | 1.04 |
| ATACAAGCC | 1.08 |
| ATACAATTGA | 1 |
| ATACACATAT | 1.03 |
| ATACACCGTT | 1.02 |
| ATACACGGTG | 1.05 |
| ATACACTGT | 1.03 |
| ATACAGATAG | 1.01 |
| ATACATACGA | 1.38 |
| ATACATTGGG | 1.03 |
| ATACCCAAGA | 0.999 |
| ATACCCACTT | 1.31 |
| ATACCCCAAT | 1.08 |
| ATACCCGGCG | 1.06 |
| ATACCTCACC | 1.67 |
| ATACGACCTT | 1.58 |
| ATACGCAGCA | 1.37 |
| ATACGCTCGG | 1 |
| ATACGGGTC | 0.977 |
| ATACGGGTTA | 1.01 |
| ATACGGTACT | 1.44 |
| ATACGGTCCG | 1.09 |
| ATACGTTGGA | 1.02 |

| Sequence | switch fluorescence ratio |
| --- | --- |
| ATACTAACG | 1.36 |
| ATACTCAAAT | 0.993 |
| ATACTCGCAC | 1.6 |
| ATACTGCCGG | 0.989 |
| ATACTGGAAT | 0.996 |
| ATACTGTACT | 1.55 |
| ATACTTAAA | 1.04 |
| ATACTTAATA | 1.05 |
| ATACTTGGGA | 1.04 |
| ATACTTTTAT | 1.07 |
| ATAGAAAGAG | 0.993 |
| ATAGAAAGGT | 1.03 |
| ATAGAACAAC | 1.02 |
| ATAGAAGATG | 0.996 |
| ATAGACCCGC | 1.06 |
| ATAGACGGAC | 1.28 |
| ATAGACGGC | 1.09 |
| ATAGACTCGC | 0.991 |
| ATAGACTTGG | 1.01 |
| ATAGATGGGC | 0.989 |
| ATAGCAAGGT | 1.22 |
| ATAGCACACG | 1.13 |
| ATAGCAGATC | 1.13 |
| ATAGCAGTGT | 1 |
| ATAGCCCTCT | 0.966 |

| Sequence | switch fluorescence ratio |
| --- | --- |
| ATAGCCTTCA | 1.72 |
| ATAGCGACGC | 0.935 |
| ATAGCGCCTG | 1.07 |
| ATAGCGGTC | 1.03 |
| ATAGCTACTC | 2.02 |
| ATAGCTATTA | 0.951 |
| ATAGCTTTAA | 1.04 |
| ATAGGATTAT | 1.05 |
| ATAGGGAGGA | 0.964 |
| ATAGGGTATT | 1.24 |
| ATAGGGTGGA | 1.02 |
| ATAGGTCCCT | 1.02 |
| ATAGGTCCT | 1.02 |
| ATAGGTTCGA | 0.992 |
| ATAGTCCAAT | 0.969 |
| ATAGTCGGCT | 1.14 |
| ATAGTGGTTG | 1 |
| ATAGTTACGT | 1.03 |
| ATAGTTGAAT | 1.06 |
| ATAGTTGCGC | 1.03 |
| ATATAAGAAG | 0.991 |
| ATATAATGAG | 1.04 |
| ATATAATTAT | 0.949 |
| ATATACTACT | 1.08 |
| ATATATATTG | 0.995 |

| Sequence | switch fluorescence ratio |
| --- | --- |
| ATATATGGCA | 1.07 |
| ATATCATTGT | 0.961 |
| ATATCCTCAT | 0.997 |
| ATATCCTCCA | 1.09 |
| ATATCGAACC | 1.07 |
| ATATCGACTT | 1.01 |
| ATATCGGTCT | 0.957 |
| ATATCTACTT | 1.06 |
| ATATCTCCGT | 1.11 |
| ATATCTTCAT | 1.03 |
| ATATGAATCC | 1.03 |
| ATATGACTT | 1.03 |
| ATATGAGGAC | 1 |
| ATATGATGG | 0.994 |
| ATATGATTCG | 0.988 |
| ATATGCCGAG | 1.07 |
| ATATGCTAGA | 0.989 |
| ATATGGCGCC | 0.975 |
| ATATGGCTT | 1.04 |
| ATATGGGCAT | 1.01 |
| ATATGGGCTA | 0.997 |
| ATATGTTATC | 1.06 |
| ATATTAAGCT | 1.07 |
| ATATTACGAG | 1.03 |
| ATATTAGCAG | 1.02 |
